{"source": "paper PMC4336329", "about": "(PLoS ONE, 2015)", "note": "Out of some 310,000 compounds screened, about 2,200 (0.71%) showed an effect of 50% or more. The effect is printed as a negative number. The list shows a part of the results.", "data": [{"target": "human ether-à-go-go-related gene (hERG) potassium channel (human, UniProt Q12809)", "sequence (Q12809 whole entry, looked up)": "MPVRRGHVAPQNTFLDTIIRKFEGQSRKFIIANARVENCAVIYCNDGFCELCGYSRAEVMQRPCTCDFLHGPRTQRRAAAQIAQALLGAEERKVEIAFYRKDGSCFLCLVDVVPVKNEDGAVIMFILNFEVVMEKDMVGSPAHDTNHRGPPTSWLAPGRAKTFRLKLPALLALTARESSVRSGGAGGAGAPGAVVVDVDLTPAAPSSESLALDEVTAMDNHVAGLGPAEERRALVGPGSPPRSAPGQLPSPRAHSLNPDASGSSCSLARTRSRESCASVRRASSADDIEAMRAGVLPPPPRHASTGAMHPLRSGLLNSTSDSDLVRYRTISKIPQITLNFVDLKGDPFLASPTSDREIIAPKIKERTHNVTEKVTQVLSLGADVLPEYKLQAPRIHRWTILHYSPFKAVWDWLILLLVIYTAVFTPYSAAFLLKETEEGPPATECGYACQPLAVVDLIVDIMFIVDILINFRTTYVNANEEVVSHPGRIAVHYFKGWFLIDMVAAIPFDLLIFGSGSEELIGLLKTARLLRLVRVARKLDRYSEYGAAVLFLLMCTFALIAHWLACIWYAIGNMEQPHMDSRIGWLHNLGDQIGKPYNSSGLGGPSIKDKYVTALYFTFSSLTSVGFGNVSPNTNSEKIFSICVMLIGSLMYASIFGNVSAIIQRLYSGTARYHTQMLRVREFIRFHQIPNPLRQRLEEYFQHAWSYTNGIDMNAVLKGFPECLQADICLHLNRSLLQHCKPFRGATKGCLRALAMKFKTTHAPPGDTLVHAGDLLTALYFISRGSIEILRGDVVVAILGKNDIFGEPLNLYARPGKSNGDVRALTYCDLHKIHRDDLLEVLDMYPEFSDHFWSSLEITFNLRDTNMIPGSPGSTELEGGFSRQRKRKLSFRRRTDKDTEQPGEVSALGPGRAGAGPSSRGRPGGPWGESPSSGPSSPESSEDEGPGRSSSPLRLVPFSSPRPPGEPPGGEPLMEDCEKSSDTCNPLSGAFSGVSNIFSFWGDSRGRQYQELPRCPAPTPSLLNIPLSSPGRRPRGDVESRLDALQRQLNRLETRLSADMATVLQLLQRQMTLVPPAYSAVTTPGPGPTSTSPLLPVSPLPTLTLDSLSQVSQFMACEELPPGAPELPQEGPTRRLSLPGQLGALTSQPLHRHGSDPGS", "experiment": "primary screen, population patch clamp on CHO cells stably expressing hERG", "units": {"hERG current change (%, negative = inhibition) at 1uM": "%"}, "values": [{"smiles": "COc1cc(/C=N/Nc2ccc(Cl)c(C(=O)O)c2)ccc1OC(=O)c1ccccc1F", "hERG current change (%, negative = inhibition) at 1uM": 5.98}, {"smiles": "COCCCn1c(=O)c2sccc2n2c(CCCC(=O)NCc3ccccc3)nnc12", "hERG current change (%, negative = inhibition) at 1uM": 12.7}, {"smiles": "Cn1c(C(=O)N2CCCC(C(=O)NCCCSC3CCCCC3)C2)cc2sccc21", "note": "(centres unmarked)", "hERG current change (%, negative = inhibition) at 1uM": -2.93}, {"smiles": "O=C(CNC1CCCCC1)N1CCC2(CC1)OCCO2.O=C(O)C(=O)O", "hERG current change (%, negative = inhibition) at 1uM": 11.7}, {"smiles": "O=C(COc1ccc(F)cc1)Nc1ccc(S(=O)(=O)Nc2ncccn2)cc1", "hERG current change (%, negative = inhibition) at 1uM": -1.59}, {"smiles": "Cc1nc(NC(C)c2ccccc2)c2c3c(sc2n1)CCC3", "note": "(centres unmarked)", "hERG current change (%, negative = inhibition) at 1uM": -16.3}, {"smiles": "CCOc1ccc(CN2C(=O)c3ccccc3C2=O)cc1C(=O)Nc1nnc(SCC)s1", "hERG current change (%, negative = inhibition) at 1uM": 11}, {"smiles": "C=CCn1c(SCc2csc(C)n2)nc2sc3c(c2c1=O)CCCCC3", "hERG current change (%, negative = inhibition) at 1uM": -11.8}, {"smiles": "O=C(NCC(c1ccco1)N1CCc2ccccc21)C(=O)Nc1ccccc1F", "note": "(centres unmarked)", "hERG current change (%, negative = inhibition) at 1uM": -20.4}, {"smiles": "Cc1ccc(S(=O)(=O)N2CCN(C(=O)Cc3ccsc3)CC2)c(C)c1", "hERG current change (%, negative = inhibition) at 1uM": -10.3}, {"smiles": "C=CCOc1ccc(-c2nc3c(c(=O)[nH]c(=O)n3CCCC)n2C)cc1Br", "hERG current change (%, negative = inhibition) at 1uM": -8.52}, {"smiles": "CCOc1ccc(CCNC(=O)c2ccc(CS(=O)Cc3ccccc3Cl)o2)cc1", "note": "(centres unmarked)", "hERG current change (%, negative = inhibition) at 1uM": 4.72}, {"smiles": "O=C(COC(=O)c1cnccn1)Nc1c(Cl)cc(Cl)cc1Cl", "hERG current change (%, negative = inhibition) at 1uM": 10.1}, {"smiles": "COc1ccc(N2CCN(C(=O)Cc3ccc(-n4c(=O)[nH]c5ccccc5c4=O)cc3)CC2)cc1", "hERG current change (%, negative = inhibition) at 1uM": 7.1}, {"smiles": "NS(=O)(=O)c1ccc(NS(=O)(=O)c2ccc(NC(=O)c3ccc(-c4ccccc4)cc3)cc2)cc1", "hERG current change (%, negative = inhibition) at 1uM": 7.89}, {"smiles": "O=C(NC1CC2CCCC(C1)N2S(=O)(=O)c1ccccc1)c1ccco1", "note": "(centres unmarked)", "hERG current change (%, negative = inhibition) at 1uM": 0.747}, {"smiles": "O=C(COc1cc(F)ccc1[N+](=O)[O-])Nc1cccc(Br)c1", "hERG current change (%, negative = inhibition) at 1uM": 12.9}, {"smiles": "CCCNC(=O)Cc1c(C)n(C(=O)c2ccc(Cl)cc2)c2ccc(OC)cc12", "hERG current change (%, negative = inhibition) at 1uM": 18.6}, {"smiles": "O=c1cc(O)c2sc(Nc3ccc(Cl)c(F)c3)nc2[nH]1", "hERG current change (%, negative = inhibition) at 1uM": 16.3}, {"smiles": "COc1cccc(CC2(CO)CCCN(CC3=Cc4cc(Cl)ccc4OC3)C2)c1", "note": "(centres unmarked)", "hERG current change (%, negative = inhibition) at 1uM": 6.49}, {"smiles": "O=C(NCc1cccs1)c1cc(S(=O)(=O)N2CCOCC2)c(Cl)cc1Cl", "hERG current change (%, negative = inhibition) at 1uM": -78.4}, {"smiles": "Nc1nonc1-n1nnc(C(=O)N/N=C/c2cccc(F)c2)c1-c1ccc2c(c1)OCO2", "hERG current change (%, negative = inhibition) at 1uM": -6.53}, {"smiles": "CC1(C)C2CC=C(/C=N/n3cnnc3)C1C2", "note": "(centres unmarked)", "hERG current change (%, negative = inhibition) at 1uM": -3.24}, {"smiles": "N#CC1=C(N)Oc2cc(N)ccc2C1c1ccc(Cl)cc1", "note": "(centres unmarked)", "hERG current change (%, negative = inhibition) at 1uM": 14.8}, {"smiles": "O=[N+]([O-])c1ccc2c(c1Nc1ccccc1)=NC1(CCCCC1)N=2", "hERG current change (%, negative = inhibition) at 1uM": 11.8}, {"smiles": "CNC[C@H](O)c1cccc(O)c1.Cl", "hERG current change (%, negative = inhibition) at 1uM": 14.7}, {"smiles": "Cn1c(=O)c2c(ncn2CC(=O)N/N=C/C=C/c2ccccc2[N+](=O)[O-])n(C)c1=O", "hERG current change (%, negative = inhibition) at 1uM": 9.68}, {"smiles": "CN(C)C1(CNCC(O)c2ccccc2)CCCCC1.O=C(O)C(=O)O", "note": "(centres unmarked)", "hERG current change (%, negative = inhibition) at 1uM": 11.3}, {"smiles": "CCOC(=O)C(C)Sc1ncc(-c2ccc(Cl)cc2)cn1", "note": "(centres unmarked)", "hERG current change (%, negative = inhibition) at 1uM": -10.5}, {"smiles": "CC(=O)N/C(=C\\c1ccccc1)C(=O)OC/C=C/c1ccccc1", "hERG current change (%, negative = inhibition) at 1uM": 10.1}, {"smiles": "Nc1nc2nccc(-c3ccc(Cl)cc3)n2n1", "hERG current change (%, negative = inhibition) at 1uM": 6}, {"smiles": "CCC(C)NC(=O)COC(=O)c1oc2ccccc2c1CSc1ccc(Cl)cc1", "note": "(centres unmarked)", "hERG current change (%, negative = inhibition) at 1uM": 10.1}, {"smiles": "CN1C(=O)c2ccccc2N(C)C1c1ccc(F)cc1", "note": "(centres unmarked)", "hERG current change (%, negative = inhibition) at 1uM": 13.1}, {"smiles": "CC(C)CCN1C(=O)c2ccc(C(=O)Nc3ccccc3C(=O)O)cc2C1=O", "hERG current change (%, negative = inhibition) at 1uM": 6.59}, {"smiles": "CSc1sc(C#N)c2c1/C(=N\\O)CCC2", "hERG current change (%, negative = inhibition) at 1uM": 11.9}, {"smiles": "COc1cc(/C=C/C(=O)c2ccc3c(c2)OCO3)cc(OC)c1OC", "hERG current change (%, negative = inhibition) at 1uM": 7.05}, {"smiles": "Cc1cc(C)cc(OCC(=O)NC2=NCCS2)c1", "hERG current change (%, negative = inhibition) at 1uM": 5.88}, {"smiles": "Cc1ccc(-c2ccnc(-c3ccc(O)cc3)n2)cc1", "hERG current change (%, negative = inhibition) at 1uM": 17.2}, {"smiles": "Cc1ccc(-c2noc(CN(C)C(=O)Nc3ccc(F)cc3)n2)cc1", "hERG current change (%, negative = inhibition) at 1uM": 17.8}, {"smiles": "CCN(CC)CCOCCOC(=O)C(CC)(CC)c1ccccc1", "hERG current change (%, negative = inhibition) at 1uM": 6.15}, {"smiles": "C=CCOC(=O)C1=C[C@@H](c2ccccc2)[C@H](CCCO)[C@@H](OCC)O1", "hERG current change (%, negative = inhibition) at 1uM": 9.37}, {"smiles": "COc1ccc(C(=O)/C=C/c2cc(OC)c(O)c(OC)c2)c(F)c1", "hERG current change (%, negative = inhibition) at 1uM": 3.59}, {"smiles": "Cc1ccccc1CSc1nnc(NC(=O)Cc2cccs2)s1", "hERG current change (%, negative = inhibition) at 1uM": 9.22}, {"smiles": "COC(=O)c1ccc(-n2c(CCC(=O)O)ccc2-c2ccc(C)cc2)cc1", "hERG current change (%, negative = inhibition) at 1uM": 9.78}]}]}
